Test results reported in article PMC6919601, “Identification of Plasmodium dipeptidyl aminopeptidase allosteric inhibitors by high throughput screening” (PLoS ONE, 2019).
Among all 110,000 compounds or so, about 230 (0.21%) showed an effect of 50% or more. This is one part of the list.

biological target: DPAP1 (Plasmodium falciparum, UniProt Q8IIJ9); experiment: primary screen, percent inhibition; read by cleavage of a fluorogenic dipeptide substrate; higher = more effect of the substance; design: species or system P. falciparum D10 trophozoite lysates; single well
Sequence (Q8IIJ9 whole entry, looked up): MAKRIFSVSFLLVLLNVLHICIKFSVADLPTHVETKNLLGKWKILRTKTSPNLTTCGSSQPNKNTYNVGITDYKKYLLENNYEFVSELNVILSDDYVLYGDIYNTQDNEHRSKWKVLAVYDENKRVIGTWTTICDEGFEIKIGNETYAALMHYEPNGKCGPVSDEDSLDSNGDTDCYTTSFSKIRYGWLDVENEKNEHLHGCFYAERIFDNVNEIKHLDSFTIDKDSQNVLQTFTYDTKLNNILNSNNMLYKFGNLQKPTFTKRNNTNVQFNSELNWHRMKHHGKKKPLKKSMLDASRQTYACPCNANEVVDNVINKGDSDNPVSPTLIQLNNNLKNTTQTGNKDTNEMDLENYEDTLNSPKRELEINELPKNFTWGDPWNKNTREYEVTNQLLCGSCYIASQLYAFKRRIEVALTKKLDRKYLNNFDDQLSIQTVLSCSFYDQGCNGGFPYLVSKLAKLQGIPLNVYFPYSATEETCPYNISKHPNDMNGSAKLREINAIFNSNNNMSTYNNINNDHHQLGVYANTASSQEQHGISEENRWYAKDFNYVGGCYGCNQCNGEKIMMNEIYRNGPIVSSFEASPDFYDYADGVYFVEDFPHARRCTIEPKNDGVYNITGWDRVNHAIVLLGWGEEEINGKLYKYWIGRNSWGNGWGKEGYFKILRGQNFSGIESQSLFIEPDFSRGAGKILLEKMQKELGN
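Note: 30 min substrate incubation versus DMSO and 10 µM JCP410 controls.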

Row | Compound | % Inhibition @ 10 uM
1 | Cc1c2cnn(CC(=O)NCCCN3CC(C)CC(C)C3)c(=O)c2c(C)n1Cc1ccc(Cl)cc1 (centres unmarked) | 1.22%
2 | O=C(c1ccc(Br)cc1)N1CCN(c2ccc(F)cc2)CC1 | 0.815%
3 | C=C1c2cc(C)c(C)cc2NC(=O)N1c1ccc(Cl)cc1 | 0.214%
4 | Cc1cc(C)c2c(-n3cccc3)c(C(=O)N3CCC(N4CCCCC4)CC3)sc2n1 | 5.42%
5 | O=C(Nc1ccccc1F)C(c1ccccc1)c1ccccc1 | -1.48%
6 | Cc1nn(C)cc1CNC(=O)CCC(=O)O | 3.94%
7 | COc1ccc(C2=NCCO2)cc1OC1CCCC1 | -1.61%
8 | CCOc1cc(C(=O)NCCSc2c(C)[nH]c3ccccc23)cc(OCC)c1OCC | -1.82%
9 | Cc1nc2c3cccnc3nn2c(C)c1CCC(=O)NCCc1ccco1 | -1.7%
10 | O=C(Nc1ncccc1Cl)C1CC2CCC1C2 (centres unmarked) | -1.88%
11 | CCCCn1c(=O)c(C(=O)Nc2cccc(C(F)(F)F)c2)c(O)c2ccccc21 | -7.9%
12 | O=C(NCCn1ccc2ccccc21)C(c1ccccc1)c1ccccc1 | 4.78%
13 | Cc1ccc(-c2[nH]nc3c2C(c2cccs2)C2=C(O)CCCC2=N3)cc1 (centres unmarked) | 2.97%
14 | O=c1[nH]c(=O)n(Cc2ccco2)c2c1C(C(F)(F)F)(C(F)(F)F)NC(CCC1CCCCC1)=N2 | -1.18%
15 | CCCN(CCO)Cc1c(OC)ccc2ccccc12 | -7.34%
16 | COc1ccc(N2CCN(Cc3c[nH]c4ccccc34)CC2)cc1 | -1.07%
17 | Cc1ccccc1Cn1c(C(=O)O)c(CNCCc2ccccc2Cl)c2ccccc21 | -4.61%
18 | CCS(=O)(=O)c1nc(S(=O)(=O)c2ccc(C)cc2)c(N2CCC(C)CC2)s1 | -2.25%
19 | Cc1ccc(C)c(S(=O)(=O)N2CCC(C)CC2)c1 | 0.565%
20 | CCN(CC)CCNC(=O)c1cc2c(-c3ccc(Cl)cc3)nn(C)c2s1 | -11.3%
21 | Oc1[nH]c2ccccc2c1/C=N/Cc1ccc(F)cc1 | -1.62%
22 | Cc1cc(C)nc(N2CCN(c3ncnc4c3cnn4-c3ccccc3)CC2)n1 | 10.9%

Row | Compound | % Inhibition @ 10 uM
23 | Cc1n[nH]c2c1C(c1c(C)nn(C)c1C)C(C#N)=C(N)O2 (centres unmarked) | -4.28%
24 | COc1ccccc1C1(c2ccccc2OC)c2ccccc2Nc2ccccc21 | -4.21%
25 | CCN(CCN(C)C)Cc1c(F)cccc1Cl | -2.34%
26 | Cc1nc2ccc(S(=O)(=O)NCC(=O)NC(C)c3ccccc3)cc2s1 (centres unmarked) | 2.37%
27 | Cc1ccc(NC(=O)c2cc3c(C)nn(-c4ccccc4)c3s2)c(C)c1 | -1.75%
28 | CCc1cccc(C)c1NC(=O)c1ccccc1Br | -4.4%
29 | COCCNC(=O)Cn1ncc2c3ccccc3n(Cc3cc(C)ccc3C)c2c1=O | 4.95%
30 | CCCC(=O)c1c(NCCc2ccccc2)cc(C)oc1=O | 2.47%
31 | Cc1ccc(C)c(N(CC(=O)Nc2ccc(Cl)cc2)S(C)(=O)=O)c1 | 0.00477%
32 | O=C(Nc1cccc(F)c1)Nc1ccc(Cl)c(Cl)c1 | 3%
33 | NS(=O)(=O)c1ccc(NC(=O)C2CC3CCC2C3)cc1 (centres unmarked) | -2.65%
34 | CCO/C(O)=C1\C(C)=NC(=S)NC1c1ccc(O)c(OC)c1 (centres unmarked) | 0.736%
35 | Cc1cccnc1NC(=O)c1c(O)nc2ccccc2c1O | 0.736%
36 | Cc1c(CNC2CCC(C)CC2)c(C(=O)O)c(C)n1Cc1cccc(Cl)c1 (centres unmarked) | 1.41%
37 | Cc1ccc(-n2c(C)cn3c4c(=O)n(C)c(=O)n(C)c4nc23)cc1 | 3.21%
38 | CCN1C(=O)/C(=C/c2cc(C)n(C)c2C)S/C1=N/c1ccc(OC)cc1 | -1.11%
39 | Cc1nc(C)c(C(=O)O)c(-c2ccco2)c1C(=O)O | 5.66%
40 | CC1CCN(CCCCCOc2cccc(Cl)c2)CC1 | -2.98%
41 | CCOC(=O)c1nnn(-c2nonc2N)c1CSc1nc2cccnc2[nH]1 | 2.18%
42 | COc1ccc(N(C(C)C(=O)Nc2ccc(C)cc2C)S(C)(=O)=O)cc1 (centres unmarked) | 0.389%
43 | Cc1ccc(NC(=O)c2sc3nc4ccccc4cc3c2N)cc1 | 5.66%
44 | COc1ccc(C(=O)CC(=O)C(=O)NCCc2ccc(Cl)cc2)cc1 | -1.03%

Row | Compound | % Inhibition @ 10 uM
45 | Cc1cc(/C=C2/NC(=O)N(c3ccc(Cl)cc3)C2=O)c(C)n1-c1ccncc1 | -1.24%
46 | COc1ccc(CNC(=O)CCCn2nc(C)c3sc4ccccc4c3c2=O)cc1 | -6.99%
47 | Cc1ccc(CNC(=O)c2cc(=O)c3cc(Cl)ccc3o2)cc1 | -1.47%
48 | CC(C)c1ccc(/C=C(/C#N)c2nc(-c3cc4cc(Br)ccc4oc3=O)cs2)cc1 | 0.827%
49 | CCOc1ccccc1N1C(=O)c2ccc(Br)cc2C1=O | 2.69%
50 | OC(CN1CCCCC1)CN1c2ccccc2Sc2ccccc21 (centres unmarked) | -7.01%
51 | COc1cccc(NC(=O)C2=C(C)NC(=O)NC2c2ccc(Cl)cc2)c1 (centres unmarked) | -4.39%
52 | O=C1S/C(=C\c2ccccc2O)C(=O)N1Cc1ccc(F)cc1 | 21.2%
53 | C=CCC1Cc2ccccc2C(CC=C)N1 (centres unmarked) | 3.46%
54 | COc1ccc(NC(=O)COc2ccccc2)c([N+](=O)[O-])c1 | 3.05%
55 | C=CC1CN2CCC1CC2C(OC(=O)c1ccccc1)c1ccnc2ccccc12 (centres unmarked) | 3.34%
56 | CCCCn1c(C(C)NC(=O)COc2ccccc2)nc2ccccc21 (centres unmarked) | 13.2%
57 | O=C(/C=C/c1ccc2c(c1)OCO2)Nc1ccc2c(c1)OCO2 | 3.47%
58 | Cc1cc(C)c(C(=O)/C=C/c2ccc(Cl)cc2)c(O)n1 | -5.32%
59 | CC(C)COc1ccc(C(=O)N(Cc2ccccc2)c2ccccn2)cc1 | 0.366%
60 | Cc1ccc(CCn2c3c(c4ccccc42)CN(C)CC3)cn1 | 0.708%
61 | CCOc1ccc2nc(Nc3nc(C)c(C)c(O)n3)nc(C)c2c1 | 5.66%
62 | COc1ccccc1-n1nnc(-c2nc(-c3ccc4c(c3)OCO4)no2)c1N | -2.15%
63 | Cc1cccc(N(CC(=O)N2CCCCCC2)S(=O)(=O)c2ccccc2)c1 | -0.496%
64 | Cc1c(C(=O)/C=C/c2ccccc2F)c2cc(O)ccc2n1C | 0.78%
65 | COCCCNC(=O)c1cc(-c2ccncc2)nc2ccccc12 | 1.16%
